# From article PMC4336329 (PLoS ONE, 2015)
# Among all 310,000 compounds or so, about 2,200 (0.71%) showed an effect of 50% or more. The effect is printed as a negative number. The list shows a part of the results.
# Biological target: human ether-à-go-go-related gene (hERG) potassium channel (human, UniProt Q12809)
# Experiment: primary screen, population patch clamp on CHO cells stably expressing hERG
# human ether-à-go-go-related gene (hERG) potassium channel, sequence (Q12809 whole entry, looked up): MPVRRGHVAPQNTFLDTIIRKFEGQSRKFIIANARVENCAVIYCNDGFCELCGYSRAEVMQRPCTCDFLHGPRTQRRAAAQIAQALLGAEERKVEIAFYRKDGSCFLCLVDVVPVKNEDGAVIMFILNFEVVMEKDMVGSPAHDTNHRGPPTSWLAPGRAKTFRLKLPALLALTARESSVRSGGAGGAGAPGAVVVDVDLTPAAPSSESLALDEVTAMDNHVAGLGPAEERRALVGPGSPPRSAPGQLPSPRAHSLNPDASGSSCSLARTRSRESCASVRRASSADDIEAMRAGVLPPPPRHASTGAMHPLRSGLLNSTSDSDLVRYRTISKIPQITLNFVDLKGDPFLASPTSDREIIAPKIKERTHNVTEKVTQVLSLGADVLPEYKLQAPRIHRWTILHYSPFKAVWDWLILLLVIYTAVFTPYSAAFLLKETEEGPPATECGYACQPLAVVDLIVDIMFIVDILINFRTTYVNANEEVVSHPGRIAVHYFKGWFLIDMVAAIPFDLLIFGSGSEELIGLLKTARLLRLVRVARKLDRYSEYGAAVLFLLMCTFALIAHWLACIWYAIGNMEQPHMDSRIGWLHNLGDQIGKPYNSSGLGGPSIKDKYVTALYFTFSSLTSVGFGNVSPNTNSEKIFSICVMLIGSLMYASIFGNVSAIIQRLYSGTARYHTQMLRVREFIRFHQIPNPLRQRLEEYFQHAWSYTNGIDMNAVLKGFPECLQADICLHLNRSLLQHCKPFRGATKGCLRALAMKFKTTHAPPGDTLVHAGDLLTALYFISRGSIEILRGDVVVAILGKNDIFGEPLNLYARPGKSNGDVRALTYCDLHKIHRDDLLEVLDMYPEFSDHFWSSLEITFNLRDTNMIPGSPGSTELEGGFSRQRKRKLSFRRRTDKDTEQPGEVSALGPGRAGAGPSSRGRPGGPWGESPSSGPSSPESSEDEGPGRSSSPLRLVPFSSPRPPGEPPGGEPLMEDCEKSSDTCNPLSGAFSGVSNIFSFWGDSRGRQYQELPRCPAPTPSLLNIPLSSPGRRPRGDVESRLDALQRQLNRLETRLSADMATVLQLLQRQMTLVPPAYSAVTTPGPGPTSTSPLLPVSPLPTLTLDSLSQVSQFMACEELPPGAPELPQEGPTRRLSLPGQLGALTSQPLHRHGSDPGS
row,Structure (SMILES),"hERG current change (%, negative = inhibition) at 1uM"
1,CC12CC(c3ccccc3O1)N(C(=O)c1ccco1)C(=S)N2c1ccc(F)cc1 (stereo not drawn),0.254%
2,Cc1ccc(C(C(=O)NCC2CCCO2)N(C(=O)c2snc(C(N)=O)c2N)c2ccc3c(c2)OCCO3)cc1 (stereo not drawn),15.8%
3,CCOc1ccc(S(=O)(=O)N2CCN(c3ccc(OC)cc3)CC2)c2cccnc12,10.5%
4,COc1ccc(C(=O)Nc2ccc(OCc3ccccc3)cc2)cc1[N+](=O)[O-],8.3%
5,O=C(CNC(=S)N(Cc1ccccc1)Cc1ccccc1F)NCCc1ccccc1,9.52%
6,COc1ccc(N2CC(C)Cn3c2nc2c3c(=O)[nH]c(=O)n2C)cc1 (stereo not drawn),0.0833%
7,Cc1cc(-c2nnc(SCC(=O)Nc3nccs3)o2)no1,15.2%
8,CCn1c2ccccc2c2cc(NC(=O)COc3ccccc3OC)ccc21,7.83%
9,CC(=O)n1c(C=Nc2ccc(Cl)cc2)c(O)c2ccccc21,4.48%
10,CCOc1ccc(N2C(=O)CN=C2Nc2ccccc2F)cc1,6.28%
11,CCN(C(=O)COC(=O)c1cc(S(=O)(=O)N2CCOCC2)c(Cl)cc1Cl)C1CCS(=O)(=O)C1 (stereo not drawn),13.6%
12,O=C(COC(=O)/C=C/c1ccccc1Cl)NCCc1ccc(Cl)cc1Cl,15.3%
13,CCOC(=O)C1(CC2CCCCO2)CCN(S(=O)(=O)c2ccc(OC)cc2)CC1 (stereo not drawn),6.99%
14,O=C(NCc1ccc2c(c1)OCO2)C(=O)Nc1ccccc1,3.48%
15,CC(/C=N/NC(=O)c1cc(-c2cccnc2)nc2c1c(C)nn2-c1ccccc1)=C\c1ccccc1,0.13%
16,COc1ccccc1C(=O)C1CCCN(Cc2cccc3nccnc23)C1 (stereo not drawn),-45%
17,COc1ccccc1NC(=O)Nc1nc2ccc(S(N)(=O)=O)cc2s1,14.8%
18,COC(=O)c1ccc(COC(=O)CNC(=O)c2cccc(OC)c2)o1,5.55%
19,Cc1ccc(C(=O)Nc2cccc(NC(=O)CN3CCCCC3)c2)cc1,-11.9%
20,CCOC(=O)c1cc(-c2ccccc2)n(CCC(=O)N2CCN(c3ccc(OC)cc3)CC2)c1C,5%
21,COc1cc(CCC(=O)Nc2c(C(=O)N3CCN(c4ccccc4)CC3)oc3ccccc23)on1,4.13%
22,Clc1ccccc1-c1nnc(-c2ccc3c(c2)OCO3)o1,3.62%

row,Structure (SMILES),"hERG current change (%, negative = inhibition) at 1uM"
1,Cc1ccc(/C=N/NC(=O)CSc2nc3ccccc3n2Cc2ccccc2)o1,-0.68%
2,Cc1ccccc1OCC(=O)NCCC(=O)O,13.1%
3,COc1cc(/C=C/C(=O)NCc2ccccn2)cc(OC)c1OC,10.5%
4,O=C1CC(=O)N(c2ccccc2F)C(=O)N1,11.3%
5,CC(C)Oc1ccc(NC(=O)C2CCCNC2=O)cc1 (stereo not drawn),13.7%
6,O=C(Nc1ccc(C(=O)O)cc1)/C(=C\c1ccc2c(c1)OCO2)NC(=O)c1ccc(Br)cc1,15.8%
7,C/C(CCc1ccc2c(c1)OCO2)=N\N=C(/N)SC1CC(=O)N(c2ccccc2F)C1=O (stereo not drawn),7.78%
8,C/C=C/C(=O)OCC(=O)Nc1c(Cl)cccc1Cl,1.7%
9,Cc1nn(Cc2ccccc2)c(Cl)c1C(=O)OCC(=O)N1CCCC1,11.9%
10,CC1(C(=O)NC2CCCC2)CCC(=O)N1Cc1ccc2c(c1)OCO2 (stereo not drawn),-0.531%
11,CC(C)OCCCN1CN(S(=O)(=O)c2cccs2)c2nc3ccccc3nc21,5.35%
12,CC(Nn1cnnc1)c1cc(Cl)ccc1O (stereo not drawn),14.8%
13,C=CCn1c(=O)c2ccccc2n2c(SCC(=O)NCCc3ccccc3)nnc12,3.36%
14,CCN(CC)c1nc(Oc2ccc(C(=O)NN)cc2)nc(Oc2ccc(C(=O)NN)cc2)n1,10.7%
15,COc1ccc2[nH]c(=O)c(CN(C(C)=O)c3cccc(C)c3)cc2c1,4.04%
16,CCN(CC)S(=O)(=O)c1cccc(NC2=NCC(C)S2)c1 (stereo not drawn),4.03%
17,CCNc1nc(NCC)nc(-n2nc(C)cc2C)n1,11.5%
18,CCOc1ccc(S(=O)(=O)Nc2ccc(S(=O)(=O)N3CCCC3)cc2)cc1,5.59%
19,O=C1CC(CSc2ccc(Cl)cc2)=NN1,7.8%
20,CCC(C)/C(C)=N/NC(=O)c1ccccc1OCCOc1ccccc1 (stereo not drawn),0.255%
21,COc1ccc(CCNC2=C(Cl)C(=O)N(CCc3ccccc3)C2=O)cc1OC,11.4%
22,O=C(c1ccccc1)c1cccn1CC(=O)N1CCc2ccccc2C1,2.97%

row,Structure (SMILES),"hERG current change (%, negative = inhibition) at 1uM"
1,Cc1ccc(S(=O)(=O)N2CCN(c3ncnc4c3cnn4-c3ccccc3)CC2)cc1,13.2%
2,CC(=O)Nc1nonc1-c1nc2ccccc2n1Cc1ccccc1,12%
3,O=C(CCCCCN1C(=O)c2ccccc2C1=O)NC1CCCC1,13.5%
4,O=C(Cn1nnc(-c2ccc(S(=O)(=O)N3CCCC3)cc2)n1)Nc1ccccc1-n1cccc1,2.03%
5,COc1ccc2[nH]c(C)c(C(=O)CN3CC(C)OC(C)C3)c2c1 (stereo not drawn),5.05%
6,COc1ccc2c3c([nH]c2c1)[C@H]1C[C@H]2[C@H](C[C@@H](O)[C@H](OC)[C@H]2C(=O)O)CN1CC3.Cl,-1.84%
7,CC(C)(CNc1ccc([N+](=O)[O-])cc1Cl)CNS(C)(=O)=O,7.18%
8,CCCCC(=O)Nc1nnc(SCC(=O)N2CCN(c3ccccc3OC)CC2)s1,2.5%
9,CCOc1cccc(CN(C)CC2CCCN(CCc3ccc(Cl)cc3)C2)c1O (stereo not drawn),1.13%
10,CCOc1ccccc1N(CC(=O)NC1CCCCC1)S(C)(=O)=O,4.23%
11,COC(=O)c1cnc(Oc2c(Cl)cc(N)cc2Cl)cc1C(F)(F)F,22.8%
12,Cc1ccc(NC(=O)CC(C)S(=O)(=O)c2ccc3c(c2)NC(=O)CO3)cc1C (stereo not drawn),15.6%
13,COc1ccc(/C=C/C(=O)O)cc1S(=O)(=O)N1CCCC1,5.99%
14,COC(=O)c1cc(=O)n(CCc2ccccc2)c(=Nc2ccc(F)cc2)s1,15.2%
15,O=C1NC(=S)N/C1=C/c1cccc([N+](=O)[O-])c1O,12.3%
16,CSc1c(C#N)c(N)nc2sc(C(=O)c3ccc(Cl)c(Cl)c3)c(N)c12,-0.345%
17,CCN(c1ccccc1C)S(=O)(=O)c1cc2c3c(c1)CCC(=O)N3CCC2,10.7%
18,O=C(NCCOc1ccccc1F)C1CCC(=O)N(CCc2cccc(F)c2)C1 (stereo not drawn),-6.97%
19,O=C(/C=C/c1ccccn1)c1ccc(Br)cc1O,14.2%
20,O=C(Nc1nnc(CC2=CCCCC2)s1)Nc1ccccc1F,1.57%
21,COc1ccc(N2CC(C(=O)Nc3ccc(S(=O)(=O)Nc4nc(C)cc(C)n4)cc3)CC2=O)cc1 (stereo not drawn),8.03%
22,O=C1N=C(c2ccccc2)C(c2ccccc2)N1 (stereo not drawn),0.749%

row,Structure (SMILES),"hERG current change (%, negative = inhibition) at 1uM"
1,CCN1C(=O)S/C(=C/c2ccc(Sc3nc4ccccc4[nH]3)o2)C1=O,9.65%
2,COc1cc(S(=O)(=O)Nc2cccnc2)ccc1Cl,9.5%
3,COC(=O)c1ccc(NC(=O)CO/N=C2\CCCc3nonc32)cc1,10.1%
4,CC(=O)Nc1ccc(NC(=O)c2ccc3c(c2)CCN3S(C)(=O)=O)cc1,11.9%
5,CCCCC12CN3CCN(CC(C3)/C1=N\NC(=O)Nc1ccccc1)C2,6.63%
6,CN(C)CCCNc1ccc(S(N)(=O)=O)cc1[N+](=O)[O-],-4.9%
7,Cc1cc(/C=C2\SC(=O)N(C)C2=O)c(C)n1-c1cccc(C(=O)O)c1,17.4%
8,Cc1cccc(-n2cc(-c3ccccc3)[nH]c2=S)c1,8.99%
9,Cc1nc2c(ncn2-c2ccccc2)c(=O)n1NC(=O)CN1CCOCC1,16.6%
10,Cc1[nH][nH]c(=O)c1C=NCc1cccnc1,14.3%
11,COc1cc(Cl)c(C)cc1NC(=O)CN1C(=O)C2CCCCC2C1=O (stereo not drawn),8.86%
12,CCOc1ccc(C(=O)CC(=O)C(=O)NCCc2ccc(OC)c(OC)c2)cc1,4.25%
13,CCOC(=O)c1sc(NC(=O)CCc2ccc(OC)cc2)nc1C,22.4%
14,CCC(C)NC(=O)/C=C/c1ccc(S(=O)(=O)NCc2ccco2)cc1 (stereo not drawn),5.24%
15,CCOCCCNC(=O)C(c1ccc(Cl)cc1)N1CCN(C(=O)c2ccco2)CC1 (stereo not drawn),5.23%
16,Cc1ccc(N2C(=O)N(CC(=O)Nc3cccc(Cl)c3)C(=O)C2C)cc1 (stereo not drawn),3.78%
17,CC(C)=CC(=O)OCC(=O)Nc1ccc(SC(F)F)cc1,5.18%
18,CCCCCCSC1=C(C#N)C(c2ccc(C)o2)CC(=O)N1 (stereo not drawn),12.4%
19,O=S(=O)(Nc1n[nH]c(C(F)(F)F)n1)c1ccccc1,-0.239%
20,CC12CCC(=O)N1C(C(=O)NNC(=O)c1cccc(Cl)c1)CS2 (stereo not drawn),13.2%
21,CCCCN(CC)CCCNC(=S)Nc1ccc2nc3n(c(=O)c2c1)CCCCC3,8.48%
